Test [1] concerns RAW-Dual. The test is described as follows: NF-kB SEAP reporter activity, fold change vs agonist alone; cytotoxicity flag (confluency mask): not cytotoxic; higher = enhanced NF-kB activity. The procedure, abridged:
(§1)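 RAW-Dual macrophages (50,000 cells/well in DMEM, 384-well plates) received 50 nL of library stock by pin tool, then a PRR agonist 1 h later, and were kept at 37 °C, 5% CO2. After 20 hours, supernatant was read for IRF by QuantiLuc luminescence and for NF-κB by QuantiBlue absorbance at 620 nm. Reporter activity is fold change over agonist-alone wells. Cytotoxic wells had IncuCyte confluency below 70% of agonist controls in both mask sets.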

The test system of test [2] is RAW-Dual. The test is described as follows: NF-kB SEAP reporter activity, fold change vs agonist alone; higher = enhanced NF-kB activity. In outline: as §1
The test system of test [3] is RAW-Dual. The test is described as follows: NF-kB SEAP reporter activity, fold change vs agonist alone; cytotoxicity flag (confluency mask): cytotoxic (confluency <70% of control); higher = enhanced NF-kB activity. The procedure, abridged: as §1
Setting [4] is: agonist: ODN 1826 (TLR9) 0.5 ug/mL.
Where [5] appears, read: agonist: Pam2CSK4 (TLR2/6) 0.1 ug/mL.
The mark [6] stands for this setting: agonist: Pam3CSK4 (TLR2/1) 0.1 ug/mL.
[7] abbreviates: library stock concentration (final ~1000-fold dilution): 10 mM, cytotoxicity flag (confluency mask): not cytotoxic, agonist: Imiquimod (TLR7) […].
Setting [8] is: library stock concentration (final ~1000-fold dilution): 10 mM, cytotoxicity flag (confluency mask): not cytotoxic, agonist: MPLA (TLR4) […].
Setting [9] is: library stock concentration (final ~1000-fold dilution): 10 mM, cytotoxicity flag (confluency mask): cytotoxic (confluency <70% of control), agonist: Imiquimod (TLR7) […].
The mark [10] stands for this setting: library stock concentration (final ~1000-fold dilution): 10 mM, cytotoxicity flag (confluency mask): cytotoxic (confluency <70% of control), agonist: MPLA (TLR4) […].

± gives the standard deviation of the averaged measurements. In all, about 2,900 compounds were measured (“NF-kB SEAP reporter activity, fold change vs agonist alone”: median about 0.99, highest 2% from about 2.6 on). The list shows a part of the results.

The source of these data is the supplement of paper PMC10037445.

Take `CC(C)[N+]1(C)C2CCC1CC(OC(=O)C(CO)c1ccccc1)C2` (stereo not given) (library stock concentration (final ~1000-fold dilution): 10 mM): the “NF-kB SEAP reporter activity” value in test [1] (agonist: LPS (TLR4) 0.1 ug/mL) amounted to 0.97; in test [1] (setting [4]), 1.02; in test [1] (setting [5]), 1.05; in test [1] (setting [6]), 1.16.

As to `C=CC(=O)N1CC/C(=C\c2ccc(F)c([N+](=O)[O-])c2)C(=O)/C(=C/c2ccc(F)c([N+](=O)[O-])c2)C1`, the “NF-kB SEAP reporter activity” value in test [2] (setting [7]) was 0.151; in test [2] (setting [8]), 0.267.

Turning to `C=CC(=O)N1CC/C(=C\c2ccc(F)c([N+](=O)[O-])c2)C(=O)/C(=C/c2ccc(F)c([N+](=O)[O-])c2)C1` (library stock concentration (final ~1000-fold dilution): 10 mM), the “NF-kB SEAP reporter activity” value in test [1] (agonist: LPS (TLR4) 0.1 ug/mL) was determined as 0.222; in test [1] (setting [4]), 0.198; in test [1] (setting [5]) it was 0.0699; in test [1] (setting [6]) it was 0.144.

Regarding `O=C(Nc1c(Cl)cncc1Cl)c1ccc(OC(F)F)c(OCC2CC2)c1`, the “NF-kB SEAP reporter activity” value in test [2] (setting [7]) was 1.6; in test [2] (setting [8]), 1.38.

For `O=C(Nc1c(Cl)cncc1Cl)c1ccc(OC(F)F)c(OCC2CC2)c1` (library stock concentration (final ~1000-fold dilution): 10 mM), the “NF-kB SEAP reporter activity” value in test [1] (agonist: LPS (TLR4) 0.1 ug/mL) came to 1.73; in test [1] (setting [4]), 2.39; in test [1] (setting [5]) it was 1.32; in test [1] (setting [6]), 1.62.

Turning to `CCOC(=O)OC(C)OC1=C(C(=O)Nc2ccccn2)N(C)S(=O)(=O)c2ccccc21` (stereo not given), the “NF-kB SEAP reporter activity” value worked out at 0.924 in test [2] (setting [7]) and 1.04 in test [2] (setting [8]).

With `CCOC(=O)OC(C)OC1=C(C(=O)Nc2ccccn2)N(C)S(=O)(=O)c2ccccc21` (stereo not given) (library stock concentration (final ~1000-fold dilution): 10 mM), the “NF-kB SEAP reporter activity” value is 1.33 in test [1] (agonist: LPS (TLR4) 0.1 ug/mL), 1.08 in test [1] (setting [4]), 1.3 in test [1] (setting [5]) and 1.08 in test [1] (setting [6]).

Regarding `Cc1cccc(-c2[nH]c(CNc3ccccc3F)nc2-c2ccc3ncnn3c2)n1`, the entries for the “NF-kB SEAP reporter activity” value in test [2] (setting [7]) and in test [2] (setting [8]) were 1.12 and 1.62, respectively.

Take `Cc1cccc(-c2[nH]c(CNc3ccccc3F)nc2-c2ccc3ncnn3c2)n1` (library stock concentration (final ~1000-fold dilution): 10 mM): the “NF-kB SEAP reporter activity” value in test [1] (agonist: LPS (TLR4) 0.1 ug/mL) was 2.41; in test [1] (setting [4]), 1.3; in test [1] (setting [5]), 1.12; in test [1] (setting [6]), 1.15.

For the compound `C[C@@H]1O[C@@H](O[C@H]2[C@H](Oc3cc(O)c(C(=O)CCc4ccc(O)cc4)c(O)c3)O[C@H](CO)[C@@H](O)[C@@H]2O)[C@H](O)[C@H](O)[C@H]1O` (library stock concentration (final ~1000-fold dilution): 10 mM), the “NF-kB SEAP reporter activity” value in test [1] (agonist: LPS (TLR4) 0.1 ug/mL) amounted to 1.12; in test [1] (setting [4]) it was 1.1; in test [1] (setting [5]), 1.13; in test [1] (setting [6]), 1.1.

Turning to `C[C@@H]1O[C@@H](O[C@H]2[C@H](Oc3cc(O)c(C(=O)CCc4ccc(O)cc4)c(O)c3)O[C@H](CO)[C@@H](O)[C@@H]2O)[C@H](O)[C@H](O)[C@H]1O`, the “NF-kB SEAP reporter activity” value in test [2] (setting [7]) was determined as 0.925; in test [2] (setting [8]) it was 0.994.

`CCCCNC(=O)NS(=O)(=O)c1ccc(C)cc1`: the “NF-kB SEAP reporter activity” value in test [2] (setting [7]) was found to be 0.867; in test [2] (setting [8]) it was 1.

Take `CCCCNC(=O)NS(=O)(=O)c1ccc(C)cc1` (library stock concentration (final ~1000-fold dilution): 10 mM): the “NF-kB SEAP reporter activity” value in test [1] (agonist: LPS (TLR4) 0.1 ug/mL) amounted to 1.45; in test [1] (setting [4]), 0.973; in test [1] (setting [5]) it was 0.993; in test [1] (setting [6]) it was 1.1.

Consider `CCCC(C(=O)OCCN(CC)CC)(c1ccccc1)c1ccccc1.Cl` (library stock concentration (final ~1000-fold dilution): 10 mM), for which the “NF-kB SEAP reporter activity” value in test [3] (agonist: LPS (TLR4) 0.1 ug/mL) was 0.633; in test [3] (setting [4]) it was 0.796; in test [3] (setting [5]), 0.481; in test [3] (setting [6]) it was 0.511.

Regarding `CCCC(C(=O)OCCN(CC)CC)(c1ccccc1)c1ccccc1.Cl`, the “NF-kB SEAP reporter activity” value in test [2] (setting [9]) is 1.04; in test [2] (setting [10]), 0.923.

Regarding `O=C(O)c1cc(-c2ccc(F)cc2F)ccc1O`, the “NF-kB SEAP reporter activity” value in test [2] (setting [8]) came out at 1.02.

Consider `O=C(O)c1cc(-c2ccc(F)cc2F)ccc1O` (library stock concentration (final ~1000-fold dilution): 10 mM), for which the “NF-kB SEAP reporter activity” value in test [1] (agonist: LPS (TLR4) 0.1 ug/mL) was 1.2; in test [1] (setting [4]) it was 0.94; in test [1] (setting [5]), 1.15; in test [1] (setting [6]) it was 0.95.

Take `Br.Cc1ccc(Sc2ccccc2N2CCNCC2)c(C)c1`: the “NF-kB SEAP reporter activity” value in test [2] (setting [9]) came to 0.905; in test [2] (setting [10]), 1.43.

As for `Br.Cc1ccc(Sc2ccccc2N2CCNCC2)c(C)c1` (library stock concentration (final ~1000-fold dilution): 10 mM), the “NF-kB SEAP reporter activity” value in test [3] (agonist: LPS (TLR4) 0.1 ug/mL) was determined as 0.697; in test [3] (setting [4]), 0.271; in test [3] (setting [5]) it was 0.438; in test [3] (setting [6]) it was 0.404.

Turning to `Cc1ccc(S(=O)(=O)n2c(N)nc3ccccc32)cc1`, the “NF-kB SEAP reporter activity” value in test [2] (setting [7]) was 0.908 ± 0.12; in test [2] (setting [8]), 1.04 ± 0.043.

On to `Cc1ccc(S(=O)(=O)n2c(N)nc3ccccc32)cc1` (library stock concentration (final ~1000-fold dilution): 10 mM), for which the “NF-kB SEAP reporter activity” value was found to be 1.37 ± 0.34 in test [1] (agonist: LPS (TLR4) 0.1 ug/mL), 0.658 ± 0.024 in test [1] (setting [4]), 0.959 ± 0.19 in test [1] (setting [5]) and 1.06 ± 0.12 in test [1] (setting [6]).

For the compound `CC/C(C)=C/CC[C@](C)(O)C1CC[C@]2(C)C3C[C@@H](O[C@@H]4O[C@H](CO)[C@@H](O)[C@H](O)[C@H]4O[C@@H]4O[C@@H](C)[C@H](O)[C@@H](O)[C@H]4O)C4C(C)(C)C(O)CC[C@]4(C)C3C[C@H](O)C12` (stereo not given in full) (library stock concentration (final ~1000-fold dilution): 10 mM), the “NF-kB SEAP reporter activity” value is 1.2 in test [1] (agonist: LPS (TLR4) 0.1 ug/mL), 0.992 in test [1] (setting [4]), 0.952 in test [1] (setting [5]) and 1.14 in test [1] (setting [6]).

Turning to `CC/C(C)=C/CC[C@](C)(O)C1CC[C@]2(C)C3C[C@@H](O[C@@H]4O[C@H](CO)[C@@H](O)[C@H](O)[C@H]4O[C@@H]4O[C@@H](C)[C@H](O)[C@@H](O)[C@H]4O)C4C(C)(C)C(O)CC[C@]4(C)C3C[C@H](O)C12` (stereo not given in full), the “NF-kB SEAP reporter activity” value in test [2] (setting [7]) was 0.952; in test [2] (setting [8]), 0.934.

Turning to `CNC(=O)c1ccc(-c2cnc3ncc(Cc4ccc5ncccc5c4)n3n2)cc1F`, the “NF-kB SEAP reporter activity” value in test [2] (library stock concentration (final ~1000-fold dilution): 2 mM, cytotoxicity flag (confluency mask): not cytotoxic, agonist: Imiquimod (TLR7) […]) was determined as 0.618; in test [2] (library stock concentration (final ~1000-fold dilution): 2 mM, cytotoxicity flag (confluency mask): not cytotoxic, agonist: MPLA (TLR4) […]), 1.02.

As to `CNC(=O)c1ccc(-c2cnc3ncc(Cc4ccc5ncccc5c4)n3n2)cc1F` (library stock concentration (final ~1000-fold dilution): 2 mM), the “NF-kB SEAP reporter activity” value in test [1] (agonist: LPS (TLR4) 0.1 ug/mL) turned out to be 1.1; in test [1] (setting [4]), 1; in test [1] (setting [5]), 1.18; in test [1] (setting [6]), 1.19.
